# Laboratory results as given in PubChem BioAssay AID887 (National Center for Advancing Translational Sciences (NCATS), 2007).
# Screen size: about 74,000 compounds; about 1,100 (1.5%) were called active. The inconclusive results got no clear call from the source; some entries with a clear call stand among them for comparison. The call rests on the fitted dose curve; in most records, active means well fitted inhibition curve with a large enough effect; inconclusive means small, poorly fitted or top-dose-only effect; inactive means no such curve, though single readings can be large or run the other way. Potencies of inconclusive entries are left out as doubtful fits.
# Target: Polyunsaturated fatty acid lipoxygenase ALOX15 (Homo sapiens) (UniProt P16050)
# Sequence of UniProt P16050 (P16050 whole entry, looked up): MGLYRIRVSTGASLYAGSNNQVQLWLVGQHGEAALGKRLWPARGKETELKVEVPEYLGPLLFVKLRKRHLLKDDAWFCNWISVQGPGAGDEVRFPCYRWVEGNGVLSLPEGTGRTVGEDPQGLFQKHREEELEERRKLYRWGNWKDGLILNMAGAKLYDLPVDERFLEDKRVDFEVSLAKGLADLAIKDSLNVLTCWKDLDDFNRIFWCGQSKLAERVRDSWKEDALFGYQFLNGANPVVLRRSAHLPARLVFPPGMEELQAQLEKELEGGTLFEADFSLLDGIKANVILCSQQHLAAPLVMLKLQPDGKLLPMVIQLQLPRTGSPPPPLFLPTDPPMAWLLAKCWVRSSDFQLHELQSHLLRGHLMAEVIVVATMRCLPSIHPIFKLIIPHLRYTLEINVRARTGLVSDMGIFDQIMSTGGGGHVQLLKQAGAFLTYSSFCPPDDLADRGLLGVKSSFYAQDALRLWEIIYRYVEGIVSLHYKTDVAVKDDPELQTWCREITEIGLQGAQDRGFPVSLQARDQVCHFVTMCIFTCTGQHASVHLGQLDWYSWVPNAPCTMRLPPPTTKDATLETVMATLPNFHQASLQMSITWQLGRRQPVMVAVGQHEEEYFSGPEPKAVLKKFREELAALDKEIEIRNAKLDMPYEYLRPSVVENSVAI
# Experiment: qHTS Assay for Inhibitors of 15-hLO (15-human lipoxygenase); further: nearly all actives have a fitted effect of over 55% in size
# Conditions: purified 15hLO-1, xylenol orange hydroperoxide absorbance; activity change, negative = inhibition: at 57.1 µM (top of the series) unless noted
# How it was run: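 Readout: Fe(III)-xylenol orange absorbance, 573-to-405 nm ratio as reaction progress. Enzyme 40 nM purified human 15hLO-1, substrate 50 uM arachidonic acid, 6 min RT after 15 min compound preincubation; Hepes pH 7.5 buffer with Triton X-100.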
# On the % scale 0 is the no-effect control and ±100 the full control effect; potency means the concentration at half of the fitted maximal effect; tags describe the fitted curve by direction and shape.
Structure (SMILES),"activity change, negative = inhibition",Potency
Cc1cccc(-n2c(SCC(=O)Nc3nnc(C)s3)nnc2-c2ccoc2C)c1,inactive: -15.5%,–
c1c2c(cc3sc(N4CCOCC4)nc13)OCO2,–,"inconclusive [inhibitor, single point]"
CC(=O)Nc1ccc(-c2ccccc2)s1,inactive: -1.25%,–
CCN1C(=O)[C@H]2[C@H]3[C@H](O)[C@H](O)C/C(=N/OC/C=C(\C)CCC=C(C)C)[C@H]3CC[C@@H]2C1=O,inactive: -12.1% [at 11.4 µM],–
CC(=O)n1cc(C2C(=O)CCCC2=O)c2ccccc21,inactive: 4.75%,–
Clc1ccccc1-c1nc(NCCN2CCOCC2)c2ccccc2n1,–,"inconclusive [inhibitor, single point]"
O=C(NC1CCN(C(=O)N2c3ccccc3Sc3ccccc32)CC1)c1ccco1,–,"inconclusive [inhibitor, partial curve]"
COc1ccc(Cl)cc1NC(=O)C1CSC(c2ccncc2)=N1 (centres undefined),–,"inconclusive [inhibitor, single point]"
CCOC(=O)c1cnc(SCc2nc(N)nc(Nc3ccc(F)cc3)n2)nc1N,–,"inconclusive [inhibitor, partial curve]"
CCOC(=O)c1c(N2C(=O)C3C4C=CC(O4)C3C2=O)sc2c1CCCC2 (centres undefined),–,active: 7.94 µM
COc1cccc(OCCCCSc2ncccn2)c1,–,"inconclusive [inhibitor, single point]"
CC(=O)Cc1nsc(NC(=O)c2csc3c2CCCC3)n1,–,"inconclusive [inhibitor, full curve, poor fit]"
Cc1cc(C)c(C#N)c(=N)o1,–,"inconclusive [inhibitor, full curve]"
CCOC(=O)c1c(C2COc3ccccc3O2)csc1NC(=O)c1ccco1 (centres undefined),–,"inconclusive [inhibitor, full curve]"
CCc1c(C)sc(NC(=O)C2CCCCC2C(=O)O)c1C(N)=O (centres undefined),–,"inconclusive [inhibitor, single point]"
Cc1ccc2[nH]c(=O)c(CN(Cc3ccccc3Cl)C(=O)N3CCOCC3)cc2c1,–,"inconclusive [inhibitor, single point]"
CN1CCN(c2ncc3nc(-c4ccccc4)c(=O)n(CCc4ccccc4)c3n2)CC1,–,"inconclusive [inhibitor, partial curve]"
CC1=C(C(=O)OC2CCCCCCC2)C(c2cccc(O)c2)NC(=O)N1 (centres undefined),–,"inconclusive [inhibitor, single point]"
COCCn1nnnc1C(c1cc2cc(C)cc(C)c2[nH]c1=O)N1CCN(c2ccccc2F)CC1 (centres undefined),–,"inconclusive [inhibitor, partial curve]"
Cc1ccsc1C=Nc1ccc(O)cc1,–,"inconclusive [inhibitor, partial curve]"
CCOc1ccc2[nH]c(=O)c(C(c3nnnn3Cc3ccco3)N3CCCC(C)C3)cc2c1 (centres undefined),–,"inconclusive [inhibitor, single point]"
CCCCn1c(=NC(=O)c2ccc3c(c2)OCO3)c(C#N)cc2c(=O)n3cccc(C)c3nc21,–,"inconclusive [inhibitor, partial curve]"

Structure (SMILES),"activity change, negative = inhibition",Potency
O=[N+]([O-])c1ccc(NN=C2c3ccccc3Cc3ccccc32)c([N+](=O)[O-])c1,inactive: -5.96% [at 11.4 µM],–
O=C(CSc1nc(Nc2ccccc2)nc(N2CCOCC2)n1)Nc1ccccc1Cl,–,"inconclusive [inhibitor, partial curve]"
COc1cc2[nH]c(=O)n(CCCC(=O)N3CC=C(c4ccccc4)CC3)c(=O)c2cc1OC,–,"inconclusive [inhibitor, single point]"
O=C(O)CSSCC(=O)O,inactive: 11.4% [at 11.4 µM],–
c1cc(NNc2cccc(-c3nn[nH]n3)c2)cc(-c2nn[nH]n2)c1,inactive: 1.91% [at 11.4 µM],–
Cc1cc(NS(=O)(=O)c2ccc(Nc3nc(-c4sc(N)nc4C)cs3)cc2)no1,inactive: -25.3%,–
CNc1ccc(C(O)(C(F)(F)F)C(F)(F)F)cc1C(O)(C(F)(F)F)C(F)(F)F,–,"inconclusive [inhibitor, single point]"
CN1CCN(C(=O)Nc2cccc3ccccc23)CC1,inactive: 10.9%,–
CC1Cc2ccccc2N1Cc1cc(=O)n2ccsc2n1 (centres undefined),–,"inconclusive [inhibitor, partial curve]"
CCN(Cc1ccccc1)C(=O)CCCOc1ccccc1,–,active: 3.98 µM
COc1cc(/C=N\n2nnnc2N)ccc1OCc1ccc(F)cc1,–,"inconclusive [inhibitor, partial curve]"
N=c1c(C(=O)NCc2ccco2)cc2c(=O)n3ccccc3nc2n1CCc1ccccc1,–,active: 12.6 µM
COc1ccc2[nH]c(=O)c(CN(Cc3ccccc3)Cc3nnnn3CC3CCCO3)cc2c1 (centres undefined),–,"inconclusive [inhibitor, single point]"
Cc1cc(C)cc(NC(=O)CCn2ccnc2C)c1,inactive: 19.6%,–
COc1ccc(CN2C(=O)c3cccnc3C2Nc2ccc(OC)c(Cl)c2)cc1 (centres undefined),–,"inconclusive [inhibitor, single point]"
N#CC1=C2SCN(c3ccccc3)CN2C(=O)CC1c1cccs1 (centres undefined),–,active: 3.98 µM
O=C(CNC(=O)c1ccc(Br)o1)Nc1cccc(-c2cnc3ccccc3n2)c1,inactive: -4.9%,–
O=C(Nc1ccccc1C(=O)NCc1cccnc1)c1ccco1,–,"inconclusive [inhibitor, single point]"
CN(C)C(=O)c1ccc(-c2cncnc2-n2ccnc2)cc1,–,"inconclusive [inhibitor, single point]"
COc1cc(-c2ccc(N=Nc3ccc4c(S(=O)(=O)O)cc(S(=O)(=O)O)c(N)c4c3O)c(OC)c2)ccc1N=Nc1ccc2c(S(=O)(=O)O)cc(S(=O)(=O)O)c(N)c2c1O,–,"inconclusive [inhibitor, partial curve]"
CC(=O)N1CCN(c2ccc(NCc3cccs3)cc2)CC1,–,active: 12.6 µM
CN(C)c1cc2c(Nc3ccc4c(cnn4Cc4ccccc4)c3)ncnc2cn1,–,"inconclusive [inhibitor, single point]"
